Here are results for 167 variants from the RNAGym collection of RNA variant scans (doi:10.7554/elife.90254).

Read counts are not given, so values of variants with three or more changes are uncertain.

Sequences and labels used below:
B1: LINE1-mini (parent)
chain: GGCAGAGCUCAACACAGCGUGGCAAAGUGGCUGUGGCUAGACUGCC

In this data set the parent is B1. The data set can be described thus: self-cleavage, relative activity (ratio to wild type); higher = more cleavage; in vitro, sequencing; the parent is a self-cleaving ribozyme.
With C15U A16C C18G C23A G29U G36C C45A, the self-cleavage came to 0.02.

Turning to G1U G7A U34C U43C, the self-cleavage was 0.06.

Take G21A G27C U28C: the self-cleavage came to 1.14. For C13U C15U U28C, the self-cleavage came to 0.07.

For the variant A16G C31G C37G G40A, the self-cleavage turned out to be 0. On to A11U C15U U43C, for which the self-cleavage turned out to be 0.02. To A4G U9C G44U belongs 0.04; to C3A A14U G33C, 0.06; to C15A A24G A25U G33C C42U, 0.03. As for G5U G7A C18U C31G, the self-cleavage was found to be 0.05. To G7C G19A A26G G27C C42U belongs 0.02. To G1U G21A A24U G35U belongs 0.05. The figure for C3G C15U A41G is 0.27.

As for U20A A25C U43A, the self-cleavage worked out at 0.04. In the case of U9C A26C G29C G30C G33C U34C G44U C45A, the self-cleavage came out at 0.

Consider G1A A4U G22U, for which the self-cleavage came out at 0.21. The figure for A16U G33A U43A is 0.07. To C18A G19A G35U C42G belongs 0.02; to C10A C31U U32A, 0.04; to C3U C8A G35U G36U, 0.5. The figure for C10A C15G C46U is 0.02; for C8A A11U G19A G33A it is 0.01; for G1U C31A C37A C45G it is 0.02. U9A U28G A41U: the self-cleavage was 0.3.

Regarding G1C G19C U38A, the self-cleavage was determined as 0. The figure for A4U G22A C37G C45A is 0.02; for A16U C23U G27U G44A it is 0.13.

For G1A U9C C13U G40A A41U, the self-cleavage stood at 0.07. Regarding G2U A16G G22U U32A G36U, the self-cleavage is 0. The figure for G27U G30A U43C C45U is 0.15; for U9C G19A A24U G35A it is 0.03; for U28A C45A C46U it is 0.36. Take A6U G33C U34A: the self-cleavage amounted to 0.14. The figure for C3U A11C C13G G35U C45U is 0.02. With C8G C15U G27A, the self-cleavage was 0.12.

On to G2U G21U A25U A41C C42G, for which the self-cleavage was 0.01. For C10G C13G C15U U20A, the self-cleavage was 0.01. In the case of G19A G22U A41C, the self-cleavage amounted to 0.02. To A6G C15U G33C G36C C42U G44U C46U belongs 0.

Consider A4U C15U G17A C23U, for which the self-cleavage stood at 0.03. The figure for C10G A26U G33U G44U is 0.01; for G1C G35C U38A U43C it is 0.02.

Take G17U C18A G33A: the self-cleavage was 0.08. To C23A G27C G29C G36C G40C belongs 0.01; to A11U C18G A25U, 0.04. To C10U A16G G33U belongs 0.01. To A4C G5A C45U belongs 0.05; to A6G G30C C45G, 0.06. As to G1U G5A G35U A39U, the self-cleavage amounted to 0.2. The figure for C8G G22A G27A is 0.05. To G1U A4C A11G C15U belongs 0.03; to C8U A12G A25C, 0.19. Consider C10A C15G G19A, for which the self-cleavage stood at 0.03.

For C13U A14C G17A G27U G35A, the self-cleavage is 0.01.

Consider A4C C23U C31G C37A, for which the self-cleavage was found to be 0.12. To A25U G30U A39C belongs 1.94. Turning to G2C C18U G19C, the self-cleavage is 0.02. The figure for C15U U20A A26G is 0.56; for G7C C23A G35U G36U C42U it is 0.08.

A4G C15G G29U: the self-cleavage was found to be 0.05.

Regarding A12U G19A G33U, the self-cleavage was 0.06.

With G1A G2U C10A A14C G22U G27C U28A G40U, the self-cleavage is 0.01.

Take U34G C37U C46A: the self-cleavage was 0.02. To C3G G5C A11G G44U belongs 0.03. The figure for U9G A11G G33C is 0.03. To A6U A14C G17U G19C C23A C42G belongs 0.08; to C18U G22C G29U G40A, 0.19. A24U G30C U34G: the self-cleavage turned out to be 0.03. The figure for A6U A24G U34G C42A is 0.08; for G30A G40C C46U it is 0.07; for G5U A11U G19U it is 0.02. To C8A C15A G35U belongs 0.26; to A14U C18A U20A, 0.01. With C3U A6C C15G G17U, the self-cleavage is 0.02. To A12G A25U G27C C37G A39G belongs 0.05; to A6G A11U G19C C23U, 0.01. The figure for G2U U28G G33U is 0; for A4U A11U C18A it is 0.02. To C10A A26C C31A belongs 0.03; to U9C C18G G22U C23U, 0.02; to C3A C10U C31G G33U C37G, 0.07. In the case of A4C G7A A14C G19U C23A A25G C37A, the self-cleavage turned out to be 0.05. To G1C C8U C23G belongs 0.01; to C15A G21A G22A C23U, 0.18; to A6U G7C G17U G22C A24U U28C C37A, 0.07. The figure for C3U C18U C46U is 1.08; for G7A C31A C46A it is 0.08; for G1U G21U C23A A39C it is 0.04. The figure for C13U G22C C46U is 0.01. Take C3U C8G C18A G33A G40A: the self-cleavage is 0.03. To A6G C45U C46A belongs 0.15; to A14G C23A G40C, 0.03; to G7A U28A G29C, 0.12.

A12U A26G G29A G30C C42U: the self-cleavage was determined as 0.09. The figure for A12U C23G U34G is 0.02. To C3A G22A U28A C31A belongs 0.31. Turning to C3G U9C A12G A14G, the self-cleavage came to 0.02.

As to G5C G30U G33A, the self-cleavage came to 0.04.

As for G7A C10U C23U U28C A39G, the self-cleavage amounted to 0.03.

Take G17A G21A C42G: the self-cleavage is 0.01. To A16U U32G G33U G40C belongs 0.01. In the case of C3A A12G C13G, the self-cleavage came out at 0.2.

Consider C3A A4U A11U A16G G29U G35U, for which the self-cleavage was found to be 0.01. The figure for A4U C18U A25G G35A is 0.08; for C15G U20A G21U C46G it is 0.01. The figure for G35U C37A A41G is 0.05; for C8U C15A U32A it is 0.06.

Take A11U G17C G29U: the self-cleavage is 0.02. The figure for C3U G19C C37A A41G C45G is 0.01; for U9G G17C G19C U20A A24C A26C U28G C42G it is 0.02; for U28A G30U U32A it is 0.15.

For the variant C31A G33U C45A, the self-cleavage is 0.12. To G2U A26G C37A belongs 0.01.

As for C23U G29C G35U, the self-cleavage was found to be 0.09.

Consider G19U U28C U38A, for which the self-cleavage was 0.39. To G1C G5C G17A belongs 0.01.

Consider G7A C18A C23G U43A, for which the self-cleavage stood at 0.16. To A6G A11U C13G G21C U34C belongs 0.01.

Take G1C A26U C31U: the self-cleavage came to 0.02. To A16C C18G G22U C23U C45G belongs 0.04; to C15A C18A U20C A25U G29U, 0.03; to C10U A12G A24C U38G, 0.01.

Turning to G21U G27U U28A, the self-cleavage worked out at 0.15.

Regarding G1U G22A C23U, the self-cleavage came out at 0.12. Regarding C13A G17U U28G G33U, the self-cleavage was determined as 0.01. The figure for G1U U20G C23U G33U A41G is 0.02; for G7A C13U G40C it is 0.19.

Consider U9C G27A G33U G35A U43A, for which the self-cleavage was determined as 0.01. Turning to G5A U20A G21C A26U G30A C42A, the self-cleavage was 0.14. The figure for C3G G5C G22A G27U U38G is 0.03. The figure for G2C A14C G22A A25G G27C C45U is 0.04; for C8G G19C G35U it is 0.04. The figure for G1C G21U G22U G30C is 0.14; for G21U G29U G44A it is 0.25; for G7A G17A C23G it is 0.11. On to C15A U20G C23U C31A, for which the self-cleavage turned out to be 0.02. Consider G7U U20C C37A, for which the self-cleavage stood at 0.02. As for G5A C13U C18A, the self-cleavage is 0.12.

Regarding C3G G7U A16G G22A, the self-cleavage worked out at 0.05.

As for C10A G17A A25G G30U C37G G40C G44A, the self-cleavage is 0.01. The figure for A6C A24U G33U U34A G44C is 0.01; for G27A C31G G36U it is 0.03. In the case of A12G A41U U43C, the self-cleavage turned out to be 0.03. The figure for G21U A26U G35A is 0.07; for C8A C10G C13U C37A it is 0.01. For the variant A4G U9C A14U C42G, the self-cleavage came to 0.01. To G5C A25U G40U belongs 0.13; to G2C A4U C18U A24U, 0.13; to G7U C18A U20G G30U G40C G44U, 0.03. For C8U C13A G30C, the self-cleavage was 0.11. To G30A U34A G36U belongs 0.05.

Regarding C3U G17A C42A, the self-cleavage turned out to be 0.07. Regarding A25U G33A G44A, the self-cleavage was determined as 0.16. To G7U A11C G22A C37G belongs 0.02; to G1C A12U G17A U20A G30U G33U, 0. To C13G G17C G44C belongs 0.01; to C8A G17A C18U G33U, 0.12; to C13U A26C G33A C46G, 0.1. The figure for C8G A16G G17A U38C is 0.12; for U9A U20A A39G C42G U43C G44C it is 0.01. In the case of G5A C23A G40U, the self-cleavage was 0.08. The figure for A11C G22A G27U C37G is 0; for G17A G19U C45A it is 0.04; for G7C A11C G44U it is 0.02.

As to C15G G17A C31G G36A, the self-cleavage worked out at 0.04.

Turning to G1U G2C A4U A14C U20C A24U G27U, the self-cleavage was 0.03. The figure for C10G C15U G22U A24C G27U is 0.06.
